This note sets out measurements from the supplement of paper PMC11417369.

This is one part of the list.

The test system of this assay is PfHDP1 homeodomain (GST-tagged). Nature of the assay: gcPBM binding intensity (ln(normalized median fluorescence intensity)); higher = stronger DNA binding. In a few lines:
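Binding intensity is the highest Masliner-normalised natural-log median intensity over replicate spots in either probe orientation. To obtain it, GST-tagged P. falciparum DNA-binding domains made in E. coli were incubated for 1 h on an Agilent 4 × 180k array of primer-extended double-stranded 36-bp intergenic genomic probes plus negative controls. Detection used Alexa488 anti-GST antibody with scanning at 488 nm.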
“TTTTTCTTTTTACATACACACAAAAAAATAAAATAT [CACACA_site581]”: the “gcPBM binding intensity (ln)” value came to 6.67. For “TGGTAATTTCTTTGATAAAAATTAATATGTATAAAT [XGTACX_negctrl_site152]” the value was 6.2; for “AAATTAATATTATGTGCATGCACAAAGAGGAACGAC [TGCATGCA_site754]”, 11.8; for “AATATTTGTTAAAGAGGTACACCATTTGGTAGGGAA [XGTACX_site2165]”, 6.74. Turning to “ATTATTTAAATGGATGCACACATGCATTAAATAAAA [CACACA_site5831]”, the “gcPBM binding intensity (ln)” value is 8.28.

As for “AAAAAAAAAAATATAACACACAACAAAAAAATATAT [CACACA_site1753]”, the “gcPBM binding intensity (ln)” value was determined as 6.89. In the case of “ATAATATGAAAACACACACACACACTAGAAAAAAAA [CACACA_site5153]”, the “gcPBM binding intensity (ln)” value was determined as 6.86. As for “TATTTTAACATTAGGTGTACATACAAAAATAAAAAT [XGTACX_site8577]”, the “gcPBM binding intensity (ln)” value was 6.75. Regarding “ACAAGTTAAAATATTACACACATATAAATATATATA [CACACA_site3132]”, the “gcPBM binding intensity (ln)” value worked out at 6.56. As for “TTTTATTTACACAGTGGTACTATTAAAAATTAATGA [XGTACX_site6737]”, the “gcPBM binding intensity (ln)” value was 6.72.

Regarding “ATAAGGTTACAACAAACACACAAAGGAATATACTCA [CACACA_site6108]”, the “gcPBM binding intensity (ln)” value came to 6.74. For “ATTTCATATTATGTAACACACAACAAGATAATCAAA [CACACA_site1960]” the value was 6.39; for “TATATATAAAGGTGTACACATATATATATATCTGTA [CACACA_site5311]”, 6.48; for “TTTTTTAACCTTTTATGTACACAATATTTAACATTT [XGTACX_site1170]”, 7.31.

On to “ACTTACACAGTTGATGGTACACTTTTATGATTTTGT [XGTACX_site3205]”, for which the “gcPBM binding intensity (ln)” value was determined as 6.88.

Take “AAGATTTTCCTTGATAGTACACTTATGAAAATTTGT [XGTACX_site3047]”: the “gcPBM binding intensity (ln)” value turned out to be 6.29. With “AATATCTTAGTGGATACACACATATAAATGTGGATT [CACACA_site485]”, the “gcPBM binding intensity (ln)” value turned out to be 6.16. As for “ATATATTACGACTTCTGTACATAATATATAAAAGAA [XGTACX_site2353]”, the “gcPBM binding intensity (ln)” value stood at 6.66. For the sequence “AAAGTAAAAAATCATAGTACACATTTAAATATATAT [XGTACX_site2323]”, the “gcPBM binding intensity (ln)” value was found to be 6.73. As for “TTTTTTAAATTATGTAGTACGATTCATTTTTTATAA [XGTACX_site1101]”, the “gcPBM binding intensity (ln)” value came out at 5.98. The result for “GGTATATATTTATAATGTACATATTCATATATATAA [XGTACX_site3291]” reads 6.23; that for “TAATATATCAAATGAAGTACTCACATATACATAATA [XGTACX_site6051]”, 6.46.

“ATATAATATATATATTGTACATATATTTATAAGCAT [XGTACX_site3726]”: the “gcPBM binding intensity (ln)” value turned out to be 6.5.

Regarding “TATATATATATATATTGTACATTTACCAAATTGTGT [XGTACX_site5791]”, the “gcPBM binding intensity (ln)” value amounted to 9.27. In the case of “AATGTGCTCGCTATTACACACTCATTGGGATAAACT [CACACA_site7043]”, the “gcPBM binding intensity (ln)” value was 7.85.
